Among the data in PMC12136788 are binding signal values, retold here.

T1: UNK ZnF1-3 (human, UniProt Q9C0B0 31-174)
T1 sequence: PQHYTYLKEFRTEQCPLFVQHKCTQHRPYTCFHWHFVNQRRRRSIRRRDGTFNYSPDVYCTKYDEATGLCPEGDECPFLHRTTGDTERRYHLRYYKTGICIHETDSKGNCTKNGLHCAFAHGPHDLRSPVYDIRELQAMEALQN

B1: chr5:61651017:61651018:+_ENSG00000068796_ENST00000381103|hu_mus|FALSE|FALSE (ssRNA)
RNA: GGGAGUUCUACAGUCCGACGAUCCCUAUGUUCAUCAAUAGGAUCUGCUGUUGUUAGGGGUCUGUAAUCCAAGCUCCCUCUGAAGUCUCUGAUCAUACACAUAAUUUCGUAAUUUGGAUUUGUAGCAUCAACAUCCUGGGCUCUCAACAGAGGAUUGAGCAUCA
B2: chr10:103870385:103870386:-_ENSG00000198728_ENST00000425280|hu_mus|FALSE|FALSE (ssRNA)
RNA: GGGAGUUCUACAGUCCGACGAUCGUCACAGUCGAGGGACACGAAGUUGCUGUGGAAUGCCUCCUUGGGGUGCUUGAGCACGUAGUACAGCUCUGUGGCACCCCCCUCAAAAAUGCUUCGGAAGUAGCGUGGUAUCAGGGUCCGCAACAGAGGAUUGAGCAUCA
B3: chr18:45374997:45374998:-_ENSG00000175387_ENST00000586040|hu_hu|motif|central (ssRNA)
RNA: GGGAGUUCUACAGUCCGACGAUCUGAGGGCUGUGAUGCAUGGAAGGUUUCUCCAACCCUCUGAUUUAAUUCAUAAUAUGCGGUCGAACACCAAAAUGCAGGUUCUGAGUAAGUAACUGGCUGUAAAUCCAAGCUAUGAUUAACCAACAGAGGAUUGAGCAUCA
B4: chr3:150289932:150289933:+_ENSG00000144895_ENST00000460851|hu_hu|hu_hu_hu_mus_False|58_98 (ssRNA)
RNA: GGGAGUUCUACAGUCCGACGAUCCUUGUAGUUUUUAACAUCCCACACUUCCAUUUGUCCUCGAAGAUUUCCAAAUCCAGCUAAUACUAAUAUAUGUCCAUGAGGGCUAUAGAAGGCUGCGUUGCGAGGACCAGUCCCAAAGUCCAACAGAGGAUUGAGCAUCA
B5: chr1:39494564:39494565:+_ENSG00000168653_ENST00000372967|hu_hu|hu_hu_hu_mus_True|48_98 (ssRNA)
RNA: GGGAGUUCUACAGUCCGACGAUCAUGCAUUCGCCUCAUCGUUUUCUACCGAAGCAAGCACUCUUCGAAGUCAUCGAACUCUAUCUUGCACUCUUUCUUCGCCCGGGUCCCACCGAUCCCGUGUGCACACUCUAUCCACUCUUUCAACAGAGGAUUGAGCAUCA
B6: chr1:169100865:169100866:+_ENSG00000143153_ENST00000367816|hu_mus|FALSE|FALSE (ssRNA)
RNA: GGGAGUUCUACAGUCCGACGAUCGUGUAAAGCAUAGAGAUUAAGUGUAGGUCCCAUACGUAUGACAGUUUGUUCAAGACUAGUAGGUUUGUGUAUCUUUUUUUAACUUAUUAAAUGGCUAGUGGGAAAGAUUUGUGCUUGUGACAACAGAGGAUUGAGCAUCA
B7: chr9:114624755:114624756:+_ENSMUSG00000032435_ENSMUST00000047404|mus_mus|motif|central (ssRNA)
RNA: GGGAGUUCUACAGUCCGACGAUCGAUGUCUUCAAAAUUAUCUUCUACUUUCAAAGUCUGAAAAUUUUCAUGUAAUAUUCCGGUUUUCUUAUCAUUAUCCCACCCUGCUGGAAUAAACACUGCGUCCUUCUCCACCACCACCGCCAACAGAGGAUUGAGCAUCA
B8: chr7:128503047:128503048:+_ENSG00000128524_ENST00000249289|hu_hu|FALSE|FALSE (ssRNA)
RNA: GGGAGUUCUACAGUCCGACGAUCGGUUGUAUCCUUCUCCACCACCAGGAAAUUGGGAUGGCGGUUCUUGUUAAGCUCCCCUAUGCCGCCCAGCAGGAAACCAGUCACCGUGUCCUCGUCUCCGAUCACUGCGAUGAGCUUACCCAACAGAGGAUUGAGCAUCA
B9: chr2:28002375:28002376:+_ENSG00000243147_ENST00000296102|hu_hu|FALSE|FALSE (ssRNA)
RNA: GGGAGUUCUACAGUCCGACGAUCUUAUUACACGCUACAGGAUUUCUGAAUCAGUAUCCCCGCCCUCAGUCUUCUCUUUAUAAAUCAAAGUCAUUUUCAAUCCACCGUUUAAAGGGAGCGUAUUUUUUUCUUUUCCACGAAGAGCAACAGAGGAUUGAGCAUCA
B10: chrX:20248820:20248821:+_ENSMUSG00000001924_ENSMUST00000001989|mus_mus|mus_mus_mus_hu_True|78_88 (ssRNA)
RNA: GGGAGUUCUACAGUCCGACGAUCGGCGAAGUCCGUCACCACAAAGUCAGGCUCUACCAGUGAUGCUACCAAGGAUUUAAAGCUAAUCUUCUUAGGUACUUUGACCUGACUGACGAUGCCUCCACGGAUGUAGUCGGAGAAGUUCAACAGAGGAUUGAGCAUCA
B11: chr3:35977374:35977375:+_ENSMUSG00000027710_ENSMUST00000011492|mus_hu|FALSE|FALSE (ssRNA)
RNA: GGGAGUUCUACAGUCCGACGAUCCACAGGUAUCUUGGUGUUUUCAAAAUGGACUUCACAAGUGUUGGAGCCCCGAAUGCCUAAUUUAUCUUCGGGUUUCCCAUUAGUGACUCCACCAAAGUCUCUUUCUACUAUGAAUGCUGUCAACAGAGGAUUGAGCAUCA
B12: chr8:101932826:101932827:-_ENSG00000164924_ENST00000353245|hu_hu|FALSE|FALSE (ssRNA)
RNA: GGGAGUUCUACAGUCCGACGAUCAAAUAUAGAAAUUCAAAUAGAAGUAACAUAAACCUGUCAUAAAUCGUAAACAAAAAACUAUUUGUGGGACAGCAUGGAUGACAAAUGGUCUACUGUGUAAAUUUUAGAAUGAGGCAGACACAACAGAGGAUUGAGCAUCA
B13: 75021839_75021959_3403_3pUTR_ENSMUSG00000034593_ENSMUST00000123128|mouse|control|control (ssRNA)
RNA: GGGAGUUCUACAGUCCGACGAUCUUUCUCUGAUCGAGUUUGUUCCAGGUCUUUUCGGAGUUUUGCAAUUUCUUCCUGCAGACUAAGGACCCGCCCAGUGGCAACCUUAGCUUCCUCUUCACUUAGCUGAAGACGUUCUACAUCCAACAGAGGAUUGAGCAUCA
B14: chr8:125590379:125590380:+_ENSMUSG00000000738_ENSMUST00000108868|mus_hu|FALSE|FALSE (ssRNA)
RNA: GGGAGUUCUACAGUCCGACGAUCUCUGACUGGAUUCUGAACUAAAUGUUGUUUCAACAACAAUCCGUUGAUCCCUUCAAAGGUAGGGGUUAGCAGUCUCAAUUGUAAGCUCUGCAGAGCUCGGCCUCCAGCCUCGGCGAGGUCCAACAGAGGAUUGAGCAUCA
B15: chr1:180854502:180854503:+_ENSG00000143324_ENST00000367589|hu_hu|motif|central (ssRNA)
RNA: GGGAGUUCUACAGUCCGACGAUCAGUGUACUUUUCAUGUAUGACCAAGUAAAGAUCCCUAAAAUUUUAAAACAGGUUUUCGGUGGGAUGGCAUGAAAUCCAAUGUUCAUCCUUUAAAACUGCUGGGAGAAAUGGCUGCCAAGGCAACAGAGGAUUGAGCAUCA
B16: chr13:100201144:100201145:-_ENSMUSG00000052727_ENSMUST00000064762|mus_mus|motif|central (ssRNA)
RNA: GGGAGUUCUACAGUCCGACGAUCCUCUUCCGUUGGCGGGAUCUUAUGCGACAAACUAGAGUCCUGGAUAUCAGAGGGACGGUAGUCCACUUCAGUUGGCCCGUUUUCAGUGAUAUGAAGCACACUGGCACCCAGAGUAGGGUGCAACAGAGGAUUGAGCAUCA
B17: chr2:48026839:48026840:+_ENSG00000116062_ENST00000540021|hu_hu|hu_hu_hu_mus_False|48_108 (ssRNA)
RNA: GGGAGUUCUACAGUCCGACGAUCAUAGUGUGCCACUAGCGUCCUAAAUCUGGAACAGUGGCGGUCAUCCGAAAACUGGCCGAUGAAAAACUUUCCCAGUGAAGUGUCCACAAAGCAAACACCAUACACACGAGUGUGACCAGACAACAGAGGAUUGAGCAUCA
B18: chr12:39756943:39756944:-_ENSG00000139116_ENST00000544797|hu_mus|hu_hu_hu_mus_False|18_88 (ssRNA)
RNA: GGGAGUUCUACAGUCCGACGAUCGGUUUGGCUGUUACCCCCAAGGGAAUCCUGUAGGAGUCUUGUCAGCUUAGAGUCUCUGUAAGGGACAUGGGUGGCUCUCUUGCUCUUGUCCCCCAAGGCACUUAUUACAUUCCCAAGAGCCAACAGAGGAUUGAGCAUCA
B19: chr17:55917276:55917277:-_ENSG00000181610_ENST00000313608|hu_hu|FALSE|FALSE (ssRNA)
RNA: GGGAGUUCUACAGUCCGACGAUCGUUUUCUUCCAACGCAGUCUGUGGUCUGACACUCAAGUGUUCGGAUUUCCGGGAAACGUGACUACCUCCGUGUUGAGUCCUUGCUUCGCCUACUCGUCUUAAAAUGACACCUUCUGCCAACAACAGAGGAUUGAGCAUCA
B20: chr5:71493517:71493518:+_ENSG00000131711_ENST00000296755|hu_mus|FALSE|FALSE (ssRNA)
RNA: GGGAGUUCUACAGUCCGACGAUCUUCCUUUAUGGGUAUGAAGCCCGUGCUUUUCUCUUCCUGUUUGUCUUGGUAAAGACCAGUGGAAGUCAGGUCAGAAACUGGGCUUUCUCUGUCUGGGAAGCCCUGCUUUCCAUUCUUCCCCAACAGAGGAUUGAGCAUCA
B21: 118676944_118677064_107_3pUTR_ENSMUSG00000020114_ENSMUST00000020315|mouse|control|control (ssRNA)
RNA: GGGAGUUCUACAGUCCGACGAUCCGGGGGGGAGGUAGGGGAGGCCGAGAGUGAGUGACGGGGACGGCCUAACGACGGCGCUGCUCGCGGGGCGCCGAGCUCAUGGGCGGCGGGACGGACGGCUUGGGCCUCGCCGGGAAGCCACAACAGAGGAUUGAGCAUCA
B22: chr3:148802587:148802588:-_ENSG00000071794_ENST00000310053|hu_mus|hu_hu_hu_mus_False|8_58 (ssRNA)
RNA: GGGAGUUCUACAGUCCGACGAUCUCCAACAACUUGUCCUCUCAUAGUUCCAAAUAAAACCAAAUCUUGCUCUUCAUCACUAGUUAGGAAGUCAUCUGGAGGAAUAAUGUCUUGGAAUUCAAAAUGUGGAAAGAAAGUUGAGUACAACAGAGGAUUGAGCAUCA

The other results are listed elsewhere or left out.

This assay addresses T1, UNK ZnF1-3. Kind of assay: nsRBNS (natural sequence RNA bind-n-seq); RBNS binding buffer (assumed for nsRBNS): 25 mM Tris pH 7.5, 150 mM KCl, 3 mM MgCl2, 0.01% Triton X-100, 500 ug/ml BSA, 20 U/ml SUPERase-In, 4 C; UNK is unkempt and MSI1 is Musashi-1; names of the RNAs are library labels; protein concentration not given here; high values mean tight binding.
B1 showed a binding signal of 1.23 enrichment R.

B2 showed a binding signal of 0.977 enrichment R.

Molecule B3 showed a binding signal of 1.24 enrichment R.

In turn, B4 had a binding signal of 1.12 enrichment R.

B5 returned a binding signal of 0.67 enrichment R.

As to B6, the binding signal came to 1.38 enrichment R.

For B7, the binding signal was 0.919 enrichment R.

In turn, B8 returned a binding signal of 0.848 enrichment R.

With B9, the binding signal was 1.09 enrichment R.

In turn, B10 gave a binding signal of 0.837 enrichment R.

With B11, the binding signal came out at 0.638 enrichment R.

With B12, the binding signal was 1.66 enrichment R.

As for B13, the binding signal is 0.551 enrichment R.

On to B14, for which the binding signal is 0.847 enrichment R.

In the case of B15, the binding signal is 1.64 enrichment R.

In turn, B16 gave a binding signal of 0.988 enrichment R.

For the molecule B17, the binding signal is 1.06 enrichment R.

As to B18, the binding signal came out at 0.729 enrichment R.

In turn, B19 had a binding signal of 0.623 enrichment R.

Take B20: the binding signal was 0.463 enrichment R.

On to B21, for which the binding signal was found to be 1.24 enrichment R.

The molecule B22 gave a binding signal of 1.27 enrichment R.
